Assay results reported in publication PMC4336329 (PLoS ONE, 2015).
The campaign covered roughly 310,000 compounds. About 2,200 (0.71%) showed an effect of 50% or more. The effect is printed as a negative number. This is one part of the list.

biological target: human ether-à-go-go-related gene (hERG) potassium channel (human, UniProt Q12809); experiment: primary screen, population patch clamp on CHO cells stably expressing hERG
Sequence (Q12809 whole entry, looked up): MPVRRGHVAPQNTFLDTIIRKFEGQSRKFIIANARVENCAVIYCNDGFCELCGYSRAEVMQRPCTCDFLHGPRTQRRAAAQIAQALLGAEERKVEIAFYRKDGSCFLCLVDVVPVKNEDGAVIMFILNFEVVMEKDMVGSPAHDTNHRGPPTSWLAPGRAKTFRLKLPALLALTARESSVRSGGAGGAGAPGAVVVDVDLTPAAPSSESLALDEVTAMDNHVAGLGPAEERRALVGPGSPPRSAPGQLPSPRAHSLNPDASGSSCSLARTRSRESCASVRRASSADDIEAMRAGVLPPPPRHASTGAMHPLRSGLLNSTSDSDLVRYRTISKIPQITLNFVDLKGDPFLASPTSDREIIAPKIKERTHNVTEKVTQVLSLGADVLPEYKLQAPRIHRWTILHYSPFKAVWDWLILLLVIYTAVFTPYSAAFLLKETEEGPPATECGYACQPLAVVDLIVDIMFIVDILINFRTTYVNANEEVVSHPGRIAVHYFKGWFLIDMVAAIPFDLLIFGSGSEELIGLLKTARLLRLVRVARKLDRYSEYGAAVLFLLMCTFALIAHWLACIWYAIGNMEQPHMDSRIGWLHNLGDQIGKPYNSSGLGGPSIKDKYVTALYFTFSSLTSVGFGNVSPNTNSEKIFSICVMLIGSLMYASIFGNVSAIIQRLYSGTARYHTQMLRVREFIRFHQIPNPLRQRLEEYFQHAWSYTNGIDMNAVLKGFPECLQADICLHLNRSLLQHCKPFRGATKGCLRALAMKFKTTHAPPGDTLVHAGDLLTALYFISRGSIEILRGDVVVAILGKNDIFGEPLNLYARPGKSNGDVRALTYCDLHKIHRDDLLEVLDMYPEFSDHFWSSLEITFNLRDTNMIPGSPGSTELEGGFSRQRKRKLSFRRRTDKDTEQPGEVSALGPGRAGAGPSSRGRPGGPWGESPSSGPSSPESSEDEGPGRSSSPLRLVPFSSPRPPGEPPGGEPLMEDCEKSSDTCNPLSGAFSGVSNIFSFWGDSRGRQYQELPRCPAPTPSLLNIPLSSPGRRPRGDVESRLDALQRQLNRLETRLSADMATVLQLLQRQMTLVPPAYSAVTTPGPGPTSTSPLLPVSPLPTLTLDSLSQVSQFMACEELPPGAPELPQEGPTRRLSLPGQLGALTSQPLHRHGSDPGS

Row | Compound | hERG current change (%, negative = inhibition) at 1uM [%]
1 | COc1ccc(/C=N/NC(=O)c2cccnc2)cc1COc1ccc(NC(C)=O)cc1 | 19.5
2 | COc1cccc(CNC(=O)CN(c2cc(C)cc(C)c2)S(=O)(=O)c2c(C)noc2C)c1 | 4.39
3 | Cc1cc(C(=O)Cn2nnc(-c3ccc(Cl)cc3)n2)c(C)n1-c1ccccc1 | 4.98
4 | Cc1ccc(S(=O)(=O)N(CC2CO2)c2cccc([N+](=O)[O-])c2)cc1 (stereo not drawn) | 14.7
5 | COc1ccc(CCNCC(C)c2ccccc2)cc1.O=C(O)C(=O)O (stereo not drawn) | 12.4
6 | CCNc1c(NS(=O)(=O)c2ccc(Br)s2)c(=O)oc2ccccc12 | -4.7
7 | CC(=O)c1c(C)[nH]c(C(=O)CN2C(=O)NC(CCc3ccccc3)C2=O)c1C (stereo not drawn) | 7.18
8 | O=[N+]([O-])c1ccc2c(c1)C(N1CCOCC1)/C(=C/COc1ccc3ccccc3c1Br)O2 (stereo not drawn) | 16.5
9 | Cc1ccc(-n2c(SCC(=O)N3CCCCC3)nc(O)c(Cc3ccccc3)c2=O)cc1 | 14.2
10 | CCOC(=O)C1CCCN(C(=O)c2c(-c3ccccc3Cl)noc2C)C1 (stereo not drawn) | 12.6
11 | COCc1nnc(NC(=O)c2cccc(NC(=O)c3ccccc3)c2)s1 | -1.69
12 | CCOC(=O)N/N=C1\CC(C)CC(C)(C)C1 (stereo not drawn) | 22.4
13 | Cc1c[nH]c(=O)c([N+](=O)[O-])c1 | 10.8
14 | Cc1ccc(S(=O)(=O)N2CN(CC3CCCO3)c3nc4ccccc4nc32)cc1 (stereo not drawn) | 14.2
15 | c1ccc(-c2noc(-c3cccnc3)n2)nc1 | 2.07
16 | COCCSc1nnc(NC(=O)c2ccc3c(c2)OCO3)s1 | 11.2
17 | Cc1ccc2[nH]c(C(=O)N3CCCCC3)cc2c1 | 11
18 | O=C(O)CC(Cc1ccccc1)(C(=O)O)c1ccccc1 (stereo not drawn) | 6.84
19 | O=C(NCCCN1CCOCC1)c1ccc2c(c1)N(Cc1ccccc1)CCS2 | 0.208
20 | Cc1nn(-c2ccccc2)c(Cl)c1/C=N/Nc1nncc(=O)[nH]1 | 16
21 | CCOC(=O)c1c(NC(=O)CN2C(=O)NC(C)(c3ccc(Cl)cc3)C2=O)sc(C(=O)NC)c1C (stereo not drawn) | 0.742
22 | Cc1cc(C)c(S(=O)(=O)Nc2nccs2)c(C)c1 | 8.76
23 | Cc1ccc(C)c(OCC(=O)Nn2c(C)nc3ccccc3c2=O)c1 | 11.8

Row | Compound | hERG current change (%, negative = inhibition) at 1uM [%]
24 | Cc1ccnc(NS(=O)(=O)c2ccc(NC(=O)Cc3ccc(Br)cc3)cc2)n1 | 18.4
25 | COc1cccc(CNC(=O)Cn2ccc3cc(S(=O)(=O)N4CCCC4)ccc32)c1 | 10.4
26 | CCOC(=O)CCCNc1ccc([N+](=O)[O-])cc1[N+](=O)[O-] | -4.57
27 | O=C(N/N=C/c1ccco1)c1cccs1 | 7.92
28 | O=S(=O)(c1ccc2ccccc2c1)n1cnc2ccccc21 | 9.03
29 | CCOC(=O)c1c(C)[nH]c(C(=O)C(C)OC(=O)c2ccc(NC(=O)CC#N)cc2)c1C (stereo not drawn) | 17.5
30 | COc1cc(/C=N/NC(=O)c2cccnc2)ccc1OS(=O)(=O)c1ccc(F)cc1 | -11.3
31 | CCc1ccc2nc3c(c(C(=O)O)c2c1)CCC3 | -8.29
32 | CC(C)CC(=O)Nc1ccc(C(=O)COc2ccc(-c3nnco3)cc2)cc1 | 11.9
33 | CCCCNC(=O)c1sc(=S)n2c1[nH]c(=O)c1ccccc12 | 12
34 | CN1C(C(=O)NCC2CC2)CC2Cn3c(nc4cc(Cl)c(Cl)cc43)C21 (stereo not drawn) | -0.922
35 | CSc1nnc(Cn2c(=O)sc3ccccc32)n1-c1ccccc1 | 4.93
36 | S=C(NCc1ccco1)N1CCN(c2ccc(Cl)cc2)CC1 | 14.1
37 | CCCC(C)NC(=O)CN1C(=O)NC2(CCc3ccccc32)C1=O (stereo not drawn) | 21
38 | Cc1ccc(-c2noc(CSc3nnc(CCc4ccccc4)n3-c3ccccc3)n2)cc1 | -8.03
39 | CCOC(=O)C(NC(C)=O)(Nc1ccc(S(=O)(=O)Nc2nccs2)cc1)C(F)(F)F (stereo not drawn) | 9.64
40 | Cc1ccc(C)c(NC(=O)c2cnn(-c3ccccc3)c2C)c1 | 21.2
41 | Cc1ccc(CNC(=O)c2cc(=O)c3ccc(C)cc3o2)cc1 | 14
42 | O=C(Nc1ccc2oc(=O)ccc2c1)c1cccnc1Cl | -2.76
43 | O=C(Nc1cccc(F)c1)c1cccnc1N1CCOCC1 | 7.09
44 | COc1ccc(-c2cc(C(=O)Nc3ccc4c(c3)OCO4)no2)cc1 | 12.3
45 | CCOC(=O)Cn1c(-c2ccc(OC)cc2)c(-c2ccc(OC)cc2)nnc1=O | 21.3
46 | CCc1ccc2[nH]c3nc(N/N=C/c4cccc(O)c4)nnc3c2c1 | 10.4

Row | Compound | hERG current change (%, negative = inhibition) at 1uM [%]
47 | Clc1cccc(-c2ccc(C=Nc3ccc(N4CCOCC4)cc3)o2)c1 | 4.98
48 | CC(C)NS(=O)(=O)c1ccc(OCC(N)=O)c(Cl)c1 | 16.4
49 | Cc1cc(-c2ccc(C)c(S(=O)(=O)NCCCN(Cc3ccccc3)C(C)C)c2)on1 | 15.7
50 | C=C(C)CNC(=S)NN=C1c2ccccc2-c2ccccc21 | 4.21
51 | O=C(O)CCn1c(-c2ccccc2)cc2ccccc21 | 1.5
52 | c1ccc(COc2ccc(OCCCn3cncn3)cc2)cc1 | -4.48
53 | O=C(Nc1ccc(C(=O)N2CCOCC2)cc1)c1cc(-c2cccnc2)nc2ccc(Cl)cc12 | 10.4
54 | Cc1ccc(C(=O)CNc2cccc([N+](=O)[O-])c2)cc1 | 14.7
55 | COc1ccccc1N1CC(C(=O)Nc2nnc(SCC(=O)NC(C)C)s2)CC1=O (stereo not drawn) | 12.9
56 | NC(=O)c1ccc(NC(=O)Cc2csc(-c3ccccc3)n2)cc1 | 8.68
57 | Cc1ccc(C)c(N2CCN(c3ccncc3N)CC2)c1 | 8.83
58 | COC(=O)CCS(=O)(=O)c1cc(Cl)ccc1Cl | 14.7
59 | NC(=O)CCCn1c(C(=O)c2ccc(Cl)cc2)c2ccc([N+](=O)[O-])cc2[n+]1[O-] | -58.2
60 | S=c1[nH]ccn1Cc1ccccc1 | 4.9
61 | Cc1ccc(NC(=O)CC2C(=O)NCCN2C(=S)Nc2ccccc2)c(C)c1 (stereo not drawn) | 7.95
62 | CCOC(=O)c1c(C)[nH]c(C(=O)COC(=O)/C=C/c2ccc(OC(F)F)cc2)c1C | 12
63 | CCOC(=O)C1ON2CCCCC2C1(O)C(F)(F)F (stereo not drawn) | 15.8
64 | O=C(O)CCSc1ccc([N+](=O)[O-])cc1[N+](=O)[O-] | 11.8
65 | Nc1nc(NCC2CCCO2)nc(Nc2ccc(Cl)cc2)c1[N+](=O)[O-] (stereo not drawn) | 10.5
66 | COc1cc(C(=O)OCC(=O)c2cc(C)n(CC3CCCO3)c2C)ccc1OCC(=O)N1CCOCC1 (stereo not drawn) | 13.1
67 | CCOC(=O)Cn1cnc2c(C#N)c3n(c2c1=O)CCCCC3 | 5.77
68 | O=C(COc1ccccc1)N(CCc1ccccc1)c1nc(-c2ccc(F)cc2)cs1 | 4.35
69 | CCOC1CCCCC1NS(=O)(=O)c1ccc(Cl)cc1 (stereo not drawn) | 10.3

Row | Compound | hERG current change (%, negative = inhibition) at 1uM [%]
70 | Cc1cccc(C(=O)NNc2ncnc3c2cnn3C)c1 | 13.2
71 | Oc1ccc(-c2[nH]ncc2-c2cccc3cccnc23)c(O)c1 | 28
72 | C=CCn1c(-c2sccc2C)n[nH]c1=S | 15.4
73 | CC(=O)N1c2ccc(S(=O)(=O)N(C)CC(=O)Nc3ccccc3C)cc2CC1C (stereo not drawn) | 12.5
74 | Cc1ccc(NC(=O)/C=C/c2ccco2)cc1S(=O)(=O)N1CCCCCC1 | 7.46
75 | O=C(CCC(=O)N1CCN(S(=O)(=O)c2ccc(Cl)cc2)CC1)Nc1cccc(Br)c1 | -7.03
76 | COC(=O)c1ccc(NC(=O)Cc2ccccc2)cc1 | -2.84
77 | Cc1cc(C)cc(OCC(=O)N(Cc2ccccc2)C2CCS(=O)(=O)C2)c1 (stereo not drawn) | 5.79
78 | O=C(c1cc2ccccc2o1)n1nnc2ccccc21 | 9.55
79 | COc1ccccc1C1=NOC(COC(=O)c2ccc3ccccc3n2)C1 (stereo not drawn) | 0.805
80 | Cc1ccc2c(N)c(C)ccc2c1 | 5.33
81 | CC(C)(NC(=O)c1ccccc1)c1nc2ccccc2s1 | 7.52
82 | Cc1nonc1OCCNCCNc1ccc([N+](=O)[O-])cc1Cl | -30.9
83 | O=C(CSc1ccc(-c2ccncc2)nn1)c1ccc(Cl)cc1 | 9.84
84 | CCOC(=O)CNC(=O)Cn1cnc2c(nnn2-c2cccc(Cl)c2)c1=O | -0.825
85 | COc1ccccc1NS(=O)(=O)c1cc(NC(=O)c2[nH]c(C)c(C(C)=O)c2C)ccc1N1CCOCC1 | 7.47
86 | Cc1cc(C)cc(CC2CC(=O)N(c3ccc([N+](=O)[O-])cc3)C2=O)c1 (stereo not drawn) | 11
87 | O=C(NC12CC3CC(CC(C3)C1)C2)c1ccc(Br)o1 | 12.6
88 | CSc1nnc(NC(=O)c2cc3ccccc3oc2=O)s1 | 8.22
89 | Cn1ccnc1SCC(=O)c1ccc(OC(F)F)cc1 | -6.59
90 | Cc1cc(COc2ccccc2OCCN2CCN(C)CC2)no1.Cl | 5.65
